The other results are listed elsewhere or left out.

B1: PhoQ; a variant is named by its letters at X, in order, P23837 (parent)
chain: MKKLLRLFFPLSLRVRFLLATAAVVLVLSLAYGMVALIGYSVSFDKTTFRLLRGESNLFYTLAKWENNKLHVELPENIDKQSPTMTLIYDENGQLLWAQRDVPWLMKMIQPDWLKSNGFHEIEADVNDTSLLLSGDHSIQQQLQEVREDDDDAEMTHSVAVNVYPATSRMPKLTIVVVDTIPVELKSSYMVWSWFIYVLSANLLLVIPLLWVAAWWSLRPIEALAKEVRELEEHNRELLNPATTRELTSLVRNLNRLLKSERERYDKYRTTLTDLTHSLKTPLXXLQXXLRSLRSEKMSVSDAEPVMLEQISRISQQIGYYLHRASMRGGTLLSRELHPVAPLLDNLTSALNKVYQRKGVNISLDISPEISFVGEQNDFVEVMGNVLDNACKYCLEFVEISARQTDEHLYIVVEDDGPGIPLSKREVIFDRGQRVDTLRPGQGVGLAVAREITEQYEGKIVAGESMLGGARMEVIFGRQHSAPKDE

Variants of B1 are the subject of the assay. Description: enrichment ratio after two sorts for PhoP signalling (ratio (wild type AVST 3.29)); higher = more functional. As to conditions: with PhoP (E. coli).
For the variant TCHC, the enrichment ratio came to 9.1.
The figure for HVQP is at most 0.25.
The figure for QRKA is at most 0.25.
Regarding QDRF, the enrichment ratio is at most 0.25.
The figure for LDPF is at most 0.25; for WCQY it is at most 0.25.
As to HCMV, the enrichment ratio is at most 0.25.
Regarding ATKL, the enrichment ratio was at most 0.25.
Under FRFS stands at most 0.25.
Under LCNP stands at most 0.25; under IGLR, at most 0.25; under DNHS, at most 0.25.
The figure for DLKT is at most 0.25.
INST: the enrichment ratio is at most 0.25.
The figure for DTWY is at most 0.25; for SRLR it is at most 0.25.
Under DNGT stands at most 0.25; under RERP, at most 0.25.
The figure for VFQV is at most 0.25.
With WVNK, the enrichment ratio was at most 0.25.
The figure for DIRP is at most 0.25.
The figure for DVRY is at most 0.25.
Under DDAQ stands at most 0.25.
As to RSWF, the enrichment ratio was at most 0.25.
Regarding QMEF, the enrichment ratio was at most 0.25.
Under FPPD stands at most 0.25.
Under QPCD stands at most 0.25; under EYQS, at most 0.25.
Under ILVT stands at most 0.25; under WLCV, at most 0.25.
Regarding MHNH, the enrichment ratio was 3.22.
The figure for TSTT is 15.1.
The figure for HWFC is at most 0.25; for NFPS it is at most 0.25; for YIPA it is at most 0.25.
The figure for EHCD is at most 0.25.
For the variant HCGR, the enrichment ratio is at most 0.25.
For the variant YMVW, the enrichment ratio was at most 0.25.
The figure for RIHE is at most 0.25; for RVMR it is at most 0.25.
Under GHDC stands at most 0.25; under RFVE, at most 0.25.
The figure for ERWP is at most 0.25; for QYQF it is at most 0.25.
Regarding VQSV, the enrichment ratio was at most 0.25.
The figure for SEIG is 13.1; for TAIV it is at most 0.25.
The figure for IFFK is at most 0.25; for HGPG it is at most 0.25; for QTRD it is at most 0.25.
The figure for ESKI is at most 0.25; for YMLH it is at most 0.25; for LQGQ it is at most 0.25.
As to VLNP, the enrichment ratio is at most 0.25.
Turning to QCNC, the enrichment ratio was at most 0.25.
Under TYSV stands 0.354.
Under WGII stands at most 0.25.
Under FMSE stands at most 0.25; under ESFQ, at most 0.25.
With VCGY, the enrichment ratio worked out at 2.11.
For the variant DAYA, the enrichment ratio was at most 0.25.
The figure for FAMT is at most 0.25; for LTTE it is at most 0.25.
Take WTMK: the enrichment ratio was at most 0.25.
Under FDEP stands at most 0.25; under NHWI, at most 0.25; under EYKV, at most 0.25.
As to GKCD, the enrichment ratio was at most 0.25.
As to VEQM, the enrichment ratio was at most 0.25.
The figure for DRHK is at most 0.25; for YHWQ it is at most 0.25.
The figure for FEHQ is at most 0.25; for YDIT it is at most 0.25.
The figure for HNSA is at most 0.25.
As for LSWL, the enrichment ratio came to 3.46.
The figure for WPKM is at most 0.25; for RFYC it is at most 0.25.
The figure for SLFN is at most 0.25; for PECL it is at most 0.25; for IFQI it is at most 0.25.
Turning to EHYP, the enrichment ratio was at most 0.25.
The figure for LRLM is at most 0.25; for YRNA it is at most 0.25.
Regarding RLPS, the enrichment ratio was at most 0.25.
The figure for MGLM is 6.14.
The figure for FKPV is at most 0.25.
Under YGDI stands at most 0.25; under SRKF, at most 0.25; under KDHR, at most 0.25.
Consider IWNR, for which the enrichment ratio is at most 0.25.
LMLN: the enrichment ratio was at most 0.25.
As for VPFN, the enrichment ratio is at most 0.25.
Under VKIQ stands at most 0.25; under KRNL, at most 0.25.
Under AVYH stands 0.253; under IQQL, at most 0.25.
On to SEQI, for which the enrichment ratio was 7.02.
Under DFFF stands at most 0.25; under SMSS, 7.62.
With VYHD, the enrichment ratio was at most 0.25.
Under GSIM stands 11.6; under PGGV, at most 0.25; under MGTM, 13.6.
Under TRFL stands at most 0.25; under KSEF, at most 0.25; under TMAP, at most 0.25.
With MQLQ, the enrichment ratio was determined as 5.01.
Under AKYK stands at most 0.25; under ARDA, at most 0.25.
The figure for EFPT is at most 0.25.
The figure for AYKG is at most 0.25; for QRTS it is at most 0.25; for INQK it is at most 0.25.
For the variant GWHT, the enrichment ratio was at most 0.25.
Under LLRE stands at most 0.25; under VGSP, at most 0.25; under EYSN, at most 0.25.
As for DKDR, the enrichment ratio is at most 0.25.
Under FDTV stands at most 0.25; under VPIW, at most 0.25.
The figure for NPPW is at most 0.25; for NFRW it is at most 0.25; for LGLE it is 0.798.
The figure for HKAM is at most 0.25.
For the variant DWNA, the enrichment ratio was at most 0.25.
With RIDM, the enrichment ratio was at most 0.25.
The figure for FVHD is at most 0.25; for FTRF it is at most 0.25.
The figure for TGAD is at most 0.25; for GHDV it is at most 0.25; for EDVD it is at most 0.25.
Under YATH stands at most 0.25; under VCPM, at most 0.25; under MNNG, at most 0.25.
With ENGF, the enrichment ratio was at most 0.25.
The figure for LDQD is 0.634; for IWDE it is at most 0.25; for NEHC it is at most 0.25.
TSKQ: the enrichment ratio was at most 0.25.
Turning to AVFQ, the enrichment ratio is at most 0.25.
The figure for WEIE is at most 0.25; for TMKI it is at most 0.25.
The figure for NTYR is at most 0.25; for NHTW it is at most 0.25; for LIRC it is at most 0.25.
Regarding EYIA, the enrichment ratio is at most 0.25.
Under PDIK stands at most 0.25; under VIAC, at most 0.25; under IVGM, at most 0.25.
Under MTHH stands at most 0.25; under GRVF, at most 0.25.
For the variant WLNI, the enrichment ratio was at most 0.25.
Under EQEL stands at most 0.25.

The values above are taken from a collection of fitness landscapes (doi:10.1126/science.1257360).
